Test results as given in paper PMC4336329 (PLoS ONE, 2015).
Hit rate of the full screen: of about 310,000 compounds, about 14,000 (4.5%) showed an effect of 50% or more. The effect is printed as a negative number. The list shows a part of the results.
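Note: peak tail current of the secondary pulse compared with the same well before compound.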

The molecules below were run against human ether-à-go-go-related gene (hERG) potassium channel (human, UniProt Q12809) (assay: primary screen, population patch clamp on CHO cells stably expressing hERG).
human ether-à-go-go-related gene (hERG) potassium channel, sequence (Q12809 whole entry, looked up): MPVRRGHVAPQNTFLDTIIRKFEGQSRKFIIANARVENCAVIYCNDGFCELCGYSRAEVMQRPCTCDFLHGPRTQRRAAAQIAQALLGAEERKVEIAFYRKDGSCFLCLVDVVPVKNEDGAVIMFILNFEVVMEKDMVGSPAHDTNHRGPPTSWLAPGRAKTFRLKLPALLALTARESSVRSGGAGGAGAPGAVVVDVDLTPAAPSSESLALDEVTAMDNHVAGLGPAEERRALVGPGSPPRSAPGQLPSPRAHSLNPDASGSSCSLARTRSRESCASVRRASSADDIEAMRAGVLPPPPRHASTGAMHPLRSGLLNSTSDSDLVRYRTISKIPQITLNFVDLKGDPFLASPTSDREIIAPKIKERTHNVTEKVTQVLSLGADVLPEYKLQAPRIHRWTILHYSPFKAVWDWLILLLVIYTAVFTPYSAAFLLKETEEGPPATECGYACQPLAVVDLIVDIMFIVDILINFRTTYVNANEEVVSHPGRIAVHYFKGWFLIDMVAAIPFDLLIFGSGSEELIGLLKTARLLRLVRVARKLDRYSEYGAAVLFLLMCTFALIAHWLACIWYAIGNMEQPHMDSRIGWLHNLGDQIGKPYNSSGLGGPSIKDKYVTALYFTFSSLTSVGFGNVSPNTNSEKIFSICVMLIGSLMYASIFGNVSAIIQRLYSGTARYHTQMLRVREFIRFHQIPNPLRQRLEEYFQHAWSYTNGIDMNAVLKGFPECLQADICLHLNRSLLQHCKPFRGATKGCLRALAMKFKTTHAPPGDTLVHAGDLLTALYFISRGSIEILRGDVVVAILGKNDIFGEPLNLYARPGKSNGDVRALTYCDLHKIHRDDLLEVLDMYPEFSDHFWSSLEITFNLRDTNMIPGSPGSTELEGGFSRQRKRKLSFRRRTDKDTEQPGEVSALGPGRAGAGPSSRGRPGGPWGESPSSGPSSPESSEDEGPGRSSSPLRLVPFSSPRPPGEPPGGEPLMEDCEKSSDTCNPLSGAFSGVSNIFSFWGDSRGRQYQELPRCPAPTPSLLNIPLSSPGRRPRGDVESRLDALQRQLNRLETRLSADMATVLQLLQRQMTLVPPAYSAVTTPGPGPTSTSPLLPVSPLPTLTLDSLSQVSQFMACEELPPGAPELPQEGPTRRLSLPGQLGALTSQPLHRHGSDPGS
In the case of `COc1ccc(N2CCN(CCNC(=O)C3CC(=O)N(C4CCCC4)C3)CC2)cc1` (stereo not shown), the “hERG current change (%, negative = inhibition) at 10uM” value is reported as -2.62%.
In the case of `CC1(C)NC(=O)N(CC(=O)N2CCN(c3cccc(Cl)c3)CC2)C1=O`, the “hERG current change (%, negative = inhibition) at 10uM” value is reported as -6.67%.
For `CCn1nc(NS(=O)(=O)c2ccc(NC(C)=O)cc2)c2cc3ccccc3nc21`, the “hERG current change (%, negative = inhibition) at 10uM” value was 15.1%.
In the case of `Cc1ccc(/C(N)=N/OC(=O)CN(C)S(=O)(=O)c2ccc(C)cc2)cc1`, the “hERG current change (%, negative = inhibition) at 10uM” value is reported as -3%.
With `CN(C(=O)COC(=O)/C=C/c1ccc2ccccc2n1)C1CCS(=O)(=O)C1` (stereo not shown) the “hERG current change (%, negative = inhibition) at 10uM” value was 12.7%.
For `Cc1c(Cl)cc(-n2cnnn2)cc1[N+](=O)[O-]`, the “hERG current change (%, negative = inhibition) at 10uM” value was 10.3%.
For `O=c1[nH]c(=O)n(Cc2ccco2)c(O)c1C=NCCN1CCOCC1`, the “hERG current change (%, negative = inhibition) at 10uM” value was 12.9%.
With `O=c1cc(-c2ccccc2)c2ccc(O)cc2o1` the “hERG current change (%, negative = inhibition) at 10uM” value was -24.4%.
In the case of `CCOc1ccccc1N=Nc1c(C)[nH]n(C(N)=S)c1=O`, the “hERG current change (%, negative = inhibition) at 10uM” value is reported as 27.8%.
`CCOCCCNC(=O)c1cc2c(=O)[nH]c3ccccc3c2s1` was tested, and the “hERG current change (%, negative = inhibition) at 10uM” value was 11.8%.
In the case of `CCCCCn1c(=O)c2ccccc2n2c(CCl)nnc12`, the “hERG current change (%, negative = inhibition) at 10uM” value is reported as -42.6%.
With `Cc1ccc(NC(=O)c2cc(-c3ccco3)on2)cc1C` the “hERG current change (%, negative = inhibition) at 10uM” value was 26.5%.
For `CCOC(=O)c1cc2c(ccn2C)n1CC(=O)N1C(C)CCCC1C` (stereo not shown), the “hERG current change (%, negative = inhibition) at 10uM” value was 20.5%.
With `CC1CCN(c2ccccc2NC(=O)c2ccc(N3CCOCC3)c([N+](=O)[O-])c2)CC1` the “hERG current change (%, negative = inhibition) at 10uM” value was -12.6%.
In the case of `CCOC(=O)C1CCN(S(=O)(=O)c2ccc(OC)c(Cl)c2Cl)CC1`, the “hERG current change (%, negative = inhibition) at 10uM” value is reported as -1.07%.
For `O=C(COC(=O)CCC1CCCC1)Nc1ccc(F)cc1Cl`, the “hERG current change (%, negative = inhibition) at 10uM” value was 0.603%.
`CN1C(=O)N(C)C2(c3ccccc3)NC(=O)NC12c1ccccc1` (stereo not shown) was tested, and the “hERG current change (%, negative = inhibition) at 10uM” value was 18.9%.
With `C/C(=N\NC(=S)NCc1ccccc1)c1ccc(C)o1` the “hERG current change (%, negative = inhibition) at 10uM” value was 2.84%.
In the case of `COc1ccc(NC(=O)C2CC(=O)NC(Nc3cccc(C)c3)=N2)cc1` (stereo not shown), the “hERG current change (%, negative = inhibition) at 10uM” value is reported as 16.1%.
`COCc1ccc(CN2CCC(n3nccc3NC(=O)CCCc3ccccc3)CC2)o1` was tested, and the “hERG current change (%, negative = inhibition) at 10uM” value was 21.5%.
In the case of `COc1ccc(CN=CC2=C(O)CNC2=O)cc1`, the “hERG current change (%, negative = inhibition) at 10uM” value is reported as 9.96%.
`CCc1ccc(NC(=O)C(C)OC(=O)c2ccc(-n3cnnn3)cc2)cc1` (stereo not shown) was tested, and the “hERG current change (%, negative = inhibition) at 10uM” value was -23.2%.
For `O=C1C=C(NCc2ccncc2)CC(c2ccccc2)C1` (stereo not shown), the “hERG current change (%, negative = inhibition) at 10uM” value was -70.7%.
For `COc1ccc(NC(=O)Nc2cccc3ccccc23)c(OC)c1`, the “hERG current change (%, negative = inhibition) at 10uM” value was 26.3%.
In the case of `CCOC(=O)C1=C(COC(=O)CCOc2cccc(C)c2)NC(=O)NC1C` (stereo not shown), the “hERG current change (%, negative = inhibition) at 10uM” value is reported as -21.7%.
In the case of `Cl.NC(=NCc1ccccc1)c1cccc([N+](=O)[O-])c1`, the “hERG current change (%, negative = inhibition) at 10uM” value is reported as -20%.
With `COc1cccc(-c2ccc(C#N)c(OC(=O)c3ccc(Cl)cc3)n2)c1` the “hERG current change (%, negative = inhibition) at 10uM” value was -15%.
With `Cc1ccc2c(c1)N(C(=O)CCC(=O)N1CCC(C(N)=O)CC1)CC(C)O2` (stereo not shown) the “hERG current change (%, negative = inhibition) at 10uM” value was -2.42%.
`COc1ccccc1NC(=O)CN(C)S(=O)(=O)c1cccc2cccnc12` was tested, and the “hERG current change (%, negative = inhibition) at 10uM” value was 6.63%.
In the case of `O=C(Nc1ccccc1)c1ccccc1CSc1ccccc1`, the “hERG current change (%, negative = inhibition) at 10uM” value is reported as 4.39%.
`O=S(=O)(O)CCN1CCOCC1` was tested, and the “hERG current change (%, negative = inhibition) at 10uM” value was 6.65%.
With `Cc1ccc(-c2cn(-c3ccccc3)c(SCC(=O)NC3CCS(=O)(=O)C3)n2)cc1C` (stereo not shown) the “hERG current change (%, negative = inhibition) at 10uM” value was -2.39%.
With `CN(CC(=O)Nc1ccccc1Cl)C(=O)COC(=O)Cc1c(F)cccc1Cl` the “hERG current change (%, negative = inhibition) at 10uM” value was 5.4%.
In the case of `N=c1c2c(-c3ccccc3)c(-c3ccccc3)n(Cc3ccco3)c2ncn1CCN1CCOCC1`, the “hERG current change (%, negative = inhibition) at 10uM” value is reported as -75.9%.
With `CC(CN1CCC(n2nccc2NC(=O)c2ccccc2Cl)CC1)c1ccccc1` (stereo not shown) the “hERG current change (%, negative = inhibition) at 10uM” value was -68.9%.
In the case of `CN(Cc1cc2ccccc2[nH]c1=O)C(=O)COc1ccccc1`, the “hERG current change (%, negative = inhibition) at 10uM” value is reported as -8.32%.
In the case of `O=c1c(C=NCCN2CCNCC2)c(-c2ccccc2)[nH]n1-c1ccc([N+](=O)[O-])cc1`, the “hERG current change (%, negative = inhibition) at 10uM” value is reported as -66.4%.
`CCCOC(=O)C1C2c3ccccc3C(c3ccccc32)C1C(=O)O` (stereo not shown) was tested, and the “hERG current change (%, negative = inhibition) at 10uM” value was 17.6%.
For `C#CC(C)(C)NC(=O)c1cnc(-c2ccccc2)nc1-c1ccccc1`, the “hERG current change (%, negative = inhibition) at 10uM” value was 9.05%.
With `O=C1CSC(c2nn(-c3ccccc3)cc2-c2cc3ccccc3oc2=O)N1Cc1ccco1` (stereo not shown) the “hERG current change (%, negative = inhibition) at 10uM” value was 4.2%.
For `COc1ccc(C=NCC2COc3ccccc3O2)cc1OC.Cl` (stereo not shown), the “hERG current change (%, negative = inhibition) at 10uM” value was 1.59%.
`CCc1ccccc1NC(=O)c1ccc(NCCc2ccccc2)c([N+](=O)[O-])c1` was tested, and the “hERG current change (%, negative = inhibition) at 10uM” value was 6.44%.
With `CC(C)C[C@H](NC(=O)[C@@H](Cc1ccccc1)n1c(=O)[nH]c2ccccc2c1=O)C(=O)N[C@@H](Cc1ccccc1)C(=O)O` the “hERG current change (%, negative = inhibition) at 10uM” value was -1.24%.
For `Cc1nc(C)c(CCNC(=O)c2ccc(C(F)(F)F)cc2)s1`, the “hERG current change (%, negative = inhibition) at 10uM” value was -6.51%.
For `Cc1ccc(C2Nc3ccccc3NC3=C2C(=O)OC(C)C3)cc1` (stereo not shown), the “hERG current change (%, negative = inhibition) at 10uM” value was -4.84%.
For `Cc1ccc(S(=O)(=O)NC2=C(N3CCN(Cc4ccccc4)CC3)C(=O)c3ccccc3C2=O)cc1`, the “hERG current change (%, negative = inhibition) at 10uM” value was -16.5%.
With `CCOc1cc(S(=O)(=O)n2ccnc2)ccc1Br` the “hERG current change (%, negative = inhibition) at 10uM” value was 14.2%.
For `COC(=O)CSc1nc2cc(OC)ccc2cc1C#N`, the “hERG current change (%, negative = inhibition) at 10uM” value was 5.12%.
For `CNC(=O)COc1coc(CN2CCN(c3ccccc3)CC2)cc1=O`, the “hERG current change (%, negative = inhibition) at 10uM” value was 7.12%.
For `COc1ccc(OC)c(S(=O)(=O)N2CCC(C(=O)NCCc3ccccc3)CC2)c1`, the “hERG current change (%, negative = inhibition) at 10uM” value was -7.28%.
`Cc1c(C)c2ccc(OCC(=O)N3CCN(c4ccccc4)CC3)cc2oc1=O` was tested, and the “hERG current change (%, negative = inhibition) at 10uM” value was -36.1%.
`CC(N)=Nc1ccc([N+](=O)[O-])cc1` was tested, and the “hERG current change (%, negative = inhibition) at 10uM” value was 16.9%.
For `Cc1ccc([C@@H]2[C@@H]3C(=O)N(c4ccccc4)C(=O)[C@@H]3[C@]3(C)C(=O)N(Cc4ccccn4)CC(=O)N23)o1`, the “hERG current change (%, negative = inhibition) at 10uM” value was 7.21%.
For `CCOc1ccc(NC(=S)NC(=O)c2cncc(Br)c2)cc1`, the “hERG current change (%, negative = inhibition) at 10uM” value was 10.1%.
For `COc1cc(O)c(C(CC(=O)N2CCN(c3ccccc3)CC2)c2ccc(N(C)C)cc2)c(OC)c1` (stereo not shown), the “hERG current change (%, negative = inhibition) at 10uM” value was 13.7%.
